# Patent publication US20140082769A1 (VIB VZW, published 2014)
# B1: β-galactosidase (enzyme)
# chain: not shown
# notes: also called beta-Gal
# Target: biotin labeled peptide of CIpB ATPase of Staphylococcus epidermidis (b~[…])
# Assay: PepBlot on BL21 cell lysate
binder,measurement,value
B1,binding result,no binding
